The campaign covered roughly 48,000 compounds. About 120 (0.25%) were called active. Not shown: some 4% with an inconclusive outcome. The call rests on the fitted dose curve; in most records, active means well fitted activation curve with a large enough effect; inconclusive means small, poorly fitted or top-dose-only effect, or another doubt; inactive means no such curve, though single readings can be large or run the other way. Some of the results follow.
Experiment: Primary qHTS for Identification of Small Molecule Activators of Huntingtin-Antisense Promoter Activity; further: nearly all actives have a fitted effect of over 55% in size
Conditions: HEK293 HTT-AS promoter firefly luciferase reporter, 24 h; series mostly up to 57.5 µM; activity change, positive = activation: at the top concentration
Method in brief: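 Firefly luciferase readout (Dual-Glo, 10 min RT) after 24 h, 37 °C compound exposure (final up to 57.5 uM) of HEK293 reporter cells cultured 24 h beforehand; PTC124 at 50 uM final as control inhibitor; activity scaled vehicle 0%, zero RLU -100%.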

Activity change, positive = activation, inactive:
COc1cccc(OC)c1C(=O)Nc1nc2c(s1)CCc1ccccc1-2 -7.7%, Cc1cccc(NC(=O)c2ccc3c(c2)CCN3S(=O)(=O)c2ccccc2)c1C -0.809%, Cc1nc2c(c(C)c1CCC(=O)NCc1ccc(Cl)cc1)c(=O)n(C)c(=O)n2C -7.56%, COC(=O)c1ccc(NC(=O)N2CCN(Cc3cc(=O)n4nc(-c5ccc(C)cc5)sc4n3)CC2)cc1 -1.75%, CC(CNC(=O)CN1C(=O)c2cccnc2Oc2ccc(Cl)cc21)c1ccccc1 (centres undefined) -8.51%, COc1ccc(-c2noc(-c3ccc(N4CCN(c5ccccc5)CC4)c([N+](=O)[O-])c3)n2)cc1 -4.23%, Cc1c(F)c(N2CCNC(C)C2)cc2c1c(=O)c(C(=O)O)cn2C1CC1 (centres undefined) -7.04%, COc1ccc(N2CC(C(=O)NCc3nnnn3-c3ccc(C)c(C)c3)CC2=O)cc1 (centres undefined) -5.39%, Cc1cccc(N2C(=O)CSC23C(=O)N(CC(=O)NCc2ccccc2Cl)c2ccccc23)c1 (centres undefined) -15.9%, COc1ccccc1NC(=O)Cn1c(=O)c(CNc2ccc(C)cc2)cc2cc3c(cc21)OCCO3 0.253%, COc1ccc(CCNC(=O)C(=O)NCC(c2ccco2)S(=O)(=O)c2ccccc2)cc1 (centres undefined) -19.6%, O=C(Cn1c(SCCOc2ccc(Cl)cc2)nc2ccccc21)N1CCCCC1 -31.4%, COc1ccc(-c2nnc3n2N(C(C)=O)C(c2ccc(Cl)c(Cl)c2)=C(C(C)=O)S3)cc1 -0.966%, CCN(C(=O)Cn1cnc2onc(-c3ccc(F)cc3)c2c1=O)c1ccc(OC)cc1 -25.9%, CCOc1ccc(NC(=O)Cn2c(=O)c(CNc3ccc(CC)cc3)cc3cc4c(cc32)OCO4)cc1 1.73%, Cc1oc2ncn(CC(C)C)c(=O)c2c1C(=O)NC(C)c1ccccc1 (centres undefined) -32.4%, Cc1cc(C)c2nc(NC(=O)c3ccc(S(=O)(=O)N4CCc5ccccc54)cc3)sc2c1 -23.2%, Cc1ccc(CNc2ncnc3onc(-c4ccc(F)cc4)c23)cc1 -37.9%, COc1ccc(C(=O)Nc2ccc3c(c2)CCCN3C(=O)c2cccs2)c(OC)c1 -32.4%, COc1cc(OC)c(NC(=O)N2CCCn3nc(C)cc32)cc1Cl -5.09%, Cc1cccc(-n2ccnc2SCC(=O)Nc2cccc3ccccc23)c1C -32.4%, COCCn1c(C)cc(O)c(C(c2ccccc2)N2CCN(c3ccccc3)CC2)c1=O (centres undefined) 1.28%, COc1ccc(-c2nnc(SCC(=O)NC3CCCCC3)nc2-c2ccc(OC)cc2)cc1 -12.3%, O=C(Cn1c(=O)n(Cc2ccc3c(c2)OCO3)c(=O)c2oc3ccccc3c21)Nc1ccccc1F -14%, O=C(NCc1nc2ccccc2[nH]1)c1c(F)cccc1F 5.75%, Cc1cccc(-n2c(C)nc3cc(C(=O)NCCC4=CCCCC4)ccc32)c1 14.1%, Cc1ccc(/C=C/c2onc(C)c2S(=O)(=O)N2CCC(C(=O)N3CCN(c4ccccc4F)CC3)CC2)cc1 -15.9%, COc1ccc(NC(=O)CCNS(=O)(=O)c2cccc3nsnc23)cc1Cl -14.4%, O=C(NCCc1ccccc1Cl)c1ccc2c(=O)n(-c3ccccc3)c(=O)[nH]c2c1 -34.1%, CCCS(=O)(=O)N1CC(=O)N(c2ccc(C)cc2)C(C)(C(=O)NC2CCCCCC2)C1 (centres undefined) -12.5%, COc1ccc(CCNC(=O)c2cc3sccc3n2Cc2ccc(Cl)cc2)cc1OC -33.8%, CCOc1ccccc1CN1CCc2nc(Nc3ccc4c(c3)OCCO4)ncc2C1 -20.3%, O=C(CSc1nc(Nc2ccc(F)cc2)c2ccccc2n1)c1ccc(F)cc1 -23.7%, COc1cc2ncn(-c3cc(OCc4ccccc4S(C)(=O)=O)c(C#N)s3)c2cc1OC -20.1%, CC(=O)Nc1ccc([C@H](C)C(=O)Nc2ncc(C(C)C)s2)cc1 -19.1%, CCc1ccc(NC(=O)CCCc2nnc3n(CC(C)C)c(=O)c4sccc4n23)cc1 -12.6%, O=C(Nc1c2c(nn1-c1ccc(Cl)cc1)CS(=O)(=O)C2)c1cccc(F)c1 -16.9%, CC(C)CN(CC(C)C)S(=O)(=O)c1ccc(C(=O)Nc2sc3c(c2C(N)=O)CC(C)(C)NC3(C)C)cc1 -32.3%, COC(=O)c1ccc(C2c3c(-c4ccccc4O)n[nH]c3C(=O)N2Cc2ccncc2)cc1 (centres undefined) 6.01%, COc1ccc(-c2nc(CNS(=O)(=O)c3ccc(Br)cc3)cs2)cc1 -28.5%, CC(C)c1nn2c(=O)cc(COC(=O)c3ccccc3NC(=O)COc3ccccc3)nc2s1 0.446%, CCOc1ccccc1NC(=O)c1c(NCc2cccs2)sc2c1CCC(C)C2 (centres undefined) -6.74%, Cc1nnc(NC(=O)CSc2nccn2Cc2ccc(F)cc2)s1 -19.9%, CC(=O)Nc1ccc(S(=O)(=O)NCCc2cn3ccsc3n2)cc1 -12%, CCC(=O)N1CCc2cc(OC)c(OC)cc2C1COc1ccccc1OC (centres undefined) -18.4%, Cc1cccc(OCc2ccc(-c3nc(C#N)c(NCc4cccnc4)o3)o2)c1 -18.3%, O=C(CSc1nc(-c2cccc(F)c2)[nH]c1-c1ccccc1)Nc1ccc2c(c1)OCCO2 -16.8%, CCc1cccc(NC(=O)CN2Cc3ccccc3C2=O)c1 -9.96%, COc1ccc(-c2cc(C)no2)cc1S(=O)(=O)NCc1cccs1 -20%, CCOc1ccc(C2CC(=O)Nc3cc4c(cc32)OCO4)cc1OC (centres undefined) -30.5%, COc1cc(CNC(=O)C2CCCCN2S(=O)(=O)c2ccc(F)cc2)cc(OC)c1OC (centres undefined) 16.7% [at 11.5 µM, percent change from vehicle, -100% = no light], CCOC(=O)c1c(S(=O)(=O)N2CCCC(C(=O)Nc3ccccn3)C2)c(C)n(C)c1C (centres undefined) 9.6%, Cc1ccc(CNC(=O)C2CCN(S(=O)(=O)c3ccc(F)cc3)CC2)cc1 6.16%, CC(=O)N1CCc2c(sc3c2c(=O)n(-c2ccc(C)cc2)c(=O)n3Cc2c(F)cccc2Cl)C1 -12.1%, COc1ccc(CNC(=O)c2cc(-c3ccc(OC)cc3)nc3n[nH]c(-c4cccc([N+](=O)[O-])c4)c23)cc1 0.293%, COc1ccccc1CNC(=O)c1cccn1-c1nnc(N2CCCCC2)s1 -13.4%, COc1ccc(CN2CCc3c(c(=O)n4ncc(C(=O)N5CCN(c6ccc(F)cc6)CC5)c4n3C)C2)cc1 -50.7%, COC(=O)c1c(NC(=O)Cc2coc3cc(C)ccc23)sc2c1CCCC2 -2.92%, CCCOc1cccc(C2c3c(oc4ccccc4c3=O)C(=O)N2c2nncs2)c1 (centres undefined) -17.2%

Source: PubChem BioAssay AID1508624 (National Center for Advancing Translational Sciences (NCATS), 2021)
